Measurements taken from patent US6906072B1 (Eisai Co., Ltd., priority 2000, dated 2005).

System: potential dependent calcium channel
Assay: Measurement of potential dependent calcium channel activity using fluorescent dye (fura2) in cerebral cortex synaptosome stimulated with KCl
Assay type: cell-based
Conditions: rat cerebral cortex synaptosome, KCl stimulation, fura2, intracellular calcium ion concentration

| Structure (SMILES) | IC50 [µM] |
| --- | --- |
| CC(C)C(C#N)(CCCN1CC2CC1CN2CCOc1ccc(F)cc1)c1ccccc1 (centres unmarked) [Example 14, 2-[(4-cyano-5-methyl-4-phenyl)hexyl]-5-[2-(4-fluorophenoxy)ethyl]-2.5-diazabicycl[2,2,1]heptane] | 6.5 |
| CC(C)C(C#N)(CCCN1CCC(Nc2nc3ccccc3o2)CC1)c1ccccc1 (centres unmarked) [Example 17] | 8 |
| CC(C)C(C#N)(CCCN1CCC(N(CCC#N)CCOc2ccc(F)cc2)CC1)c1ccccc1 (centres unmarked) [Example 24, 1-[(4-cyano-5-methyl-4-phenyl)hexyl]-4-[2-(4-fluorophenoxy)ethyl](2-cyanoethyl)aminopiperidine] | 3 |
| CC(C)C(C#N)(CCCN1CCN(CCc2ccccc2)CC1)c1ccccc1 (centres unmarked) [Example 30, 1-[(4-cyano-5-methyl-4-phenyl)hexyl]-4-(2-phenylethyl)piperazine] | 7.7 |
| CC(C)C(C#N)(CCCN1CCN(CCCc2ccccc2)CC1)c1ccccc1 (centres unmarked) [Example 31] | 4.5 |
| CC(C)C(C#N)(CCCN1CCC(N(CCC#N)CCOc2cccc(F)c2)C1)c1ccccc1 (centres unmarked) [Example 32, 1-[(4-cyano-5-methyl-4-phenyl)hexyl]-3-[N-(2-cyanoethyl)-N-[2-(3-fluorophenoxy)ethyl]Amino]pyrrolidine] | 5.1 |
| CC(C)C(C#N)(CCCN1CCC(N(CCC#N)CCOc2cccc(C#N)c2)C1)c1ccccc1 (centres unmarked) [Example 33, 1-[(4-cyano-5-methyl-4-phenyl)hexyl]-3-[N-(2-cyanoethyl)-N-(2-(3-cyanothenoxy)ethyl]Amino]pyrrolidine] | 2.6 |
| CC(C)C(C#N)(CCCN1CCC(N(CCC#N)CCOc2ccccc2C#N)C1)c1ccccc1 (centres unmarked) [Example 34, 1-[(4-cyano-5-methyl-4-phenyl)hexyl]-3-[N-(2-cyanoethyl)-N-[2-(2-cyanophenoxy)ethyl]Amino]pyrrolidine] | 4.4 |
| CC(C)C(C#N)(CCCN1CCC(N(CCC#N)CCOc2cccc(C#N)c2)C1)c1cccs1 (centres unmarked) [Example 37, 1-[(4-cyano-5-methyl-4-(2-thienyl))hexyl]-3-[N-(2-cyanoethyl)-N-{2-(3-cyanophenoxy)ethyl}amino]pyrrolidine] | 8.3 |
| CC(C)C(C#N)(CCCN1CCC(CCOc2ccc(F)cc2)CC1)c1ccccc1 (centres unmarked) [Example 46] | 4.9 |
| CC(C)C(C#N)(CCCC1CCN(CCOc2ccc(F)cc2)CC1)c1ccccc1 (centres unmarked) [Example 48] | 3.5 |
| CC(C)C(C#N)(CCCN1CCN(/C(=N/C2CCCCC2)NC2CCCCC2)CC1)c1ccccc1 (centres unmarked) [Example 61] | 7.7 |
| CC(C)C(C#N)(CCCN1CCN(/C(=N/C#N)NCCOc2ccc(F)cc2)CC1)c1ccccc1 (centres unmarked) [Example 62, N-Cyano-4-[1(4-cyano-5-methyl-4-phenyl)hexyl]-N′-[(4-fluorophenoxy)ethyl]pyrazinecarboxyimidamide] | 5.3 |
| CC(C)Cn1c(N2CCN(CCCC(C#N)(c3ccccc3)C(C)C)CC2)nc2ccccc21 (centres unmarked) [Example 64] | 6.2 |
| CC(C)C(C#N)(CCCN1CCN(CCCC(C#N)(c2ccccc2)C(C)C)CC1)c1ccccc1 (centres unmarked) [Example 65, Bis-1,4-[(4-cyano-5-methyl-4-phenyl)hexyl]piperazine] | 2.7 |
| CC(C)C(C#N)(CCCN1CCN(CCC(C#N)(c2ccccc2)C(C)C)CC1)c1ccccc1 (centres unmarked) [Example 66, 1-[(4-cyano-5-methyl-4-phenyl)hexyl]-4-[(3-cyano-4-methyl-3-phenyl)pentyl]piperazine] | 4.4 |
| CC(C)C(C#N)(CCCN1CCC(CCc2cccc3c2OCO3)CC1)c1ccccc1 (centres unmarked) [Example 67] | 7.1 |
| CC(C)C(C#N)(CCCN1CCN(CCOc2cccc(C#N)c2)CC1)c1ccc(C#N)s1 (centres unmarked) [Example 70] | 13 |
| CC(C)C(C#N)(CCCN1CCN(CCOc2cccc(C#N)c2)CC1)c1cccs1 (centres unmarked) [Example 75] | 9 |
| CC(C)C(C#N)(CCCN1CCN(CCOc2ccc(C#N)cc2)CC1)c1cccs1 (centres unmarked) [Example 76] | 13 |
| CC(C)C(C#N)(CCCN1CCN(CCCc2cccs2)CC1)c1ccc(C#N)s1 (centres unmarked) [Example 78] | 8.9 |
| CC(C)C(C#N)(CCCN1CCN(CCOc2cccc(C#N)c2)CC1)c1ccsc1 (centres unmarked) [Example 85, 1-[4-cyano-5-methyl-4-(3-thienyl)hexyl]-4-[2-(3-cyanaphenoxy)ethyl]piperazine] | 10 |
| CC(C)C(C#N)(CCCN1CCN(CCOc2cccc(C#N)c2)CC1)c1cc(Br)sc1Br (centres unmarked) [Example 92, 1-[4-cyano-5-methyl-4-[(2.5-dibromo)-3-thienyl]hexyl]-4-[2-(3-cyanophenoxy)ethyl]piperazine] | 3.1 |

Continued, values first:

| IC50 [µM] | Structure (SMILES) |
| --- | --- |
| 8.4 | CC(=O)c1cccc(OCCN2CCN(CCCC(C#N)(c3ccccc3)C(C)C)CC2)c1 (centres unmarked) [Example 1] |
| 5.4 | CC(C)C(C#N)(CCCN1CCN(Cc2cc3ccccc3o2)CC1)c1ccccc1 (centres unmarked) [Example 3] |
| 7.6 | CC(C)C(C#N)(CCCN1CCN(Cc2c[nH]c3ccccc23)CC1)c1ccccc1 (centres unmarked) [Example 5, 1-[(4-cyano-5-methyl-4-phenyl)hexyl]-4-[(3-indolyl)methyl]piperazine] |
| 9 | CC(C)C(C#N)(CCCN1CCN(Cc2ccc3ccccc3n2)CC1)c1ccccc1 (centres unmarked) [Example 6] |
| 5.8 | CC(C)C(C#N)(CCCN1CCN(Cc2cnccc2-c2ccccc2)CC1)c1ccccc1 (centres unmarked) [Example 7, 1-[(4-cyano-5-methyl-4-phenyl)hexyl]-4-[(4-phenyl-3-pyridyl) Methyl]piperazine] |
| 6.8 | CC(C)C(C#N)(CCCN1CCN(C(=O)C2CCc3ccccc3C2)CC1)c1ccccc1 (centres unmarked) [Example 8, 1-[(4-cyano-5-methyl-4-phenyl)hexyl]-4-(1.2.3.4-tetrahydro-2-naphthoyl)piperazine] |
| 4.5 | CC(C)C(C#N)(CCCN1CCN(CC2CCc3ccccc3C2)CC1)c1ccccc1 (centres unmarked) [Example 9, 1-[(4-cyano-5-methyl-4-phenyl)hexyl]-4-[(1.2.3.4-tetrahydro-2-naphthyl)methyl]piperazine] |
| 5.1 | CC(C)C(C#N)(CCCN1CCN(CC2COc3ccccc3O2)CC1)c1ccccc1 (centres unmarked) [Example 11, 1-[(4-cyano-5-methyl-4-phenyl)hexyl]-4-[2-(1,4-benzodioxanyl) Methyl]piperazine] |
| 8.2 | CC(C)C(C#N)(CCCN1CCN(C(=O)c2cc3ccccc3n2C)CC1)c1ccccc1 (centres unmarked) [Example 12, 1-[(4-cyano-5-methyl-4-phenyl)hexyl]-4-(1-methyl-2-indoloyl)piperazine] |
| 6.6 | CC(C)C(C#N)(CCCN1CCN(Cc2cc3ccccc3n2C)CC1)c1ccccc1 (centres unmarked) [Example 13, 1-[(4-cyano-5-methyl-4-phenyl)hexyl]-4-[(1-methyl-2-indolyl)methyl]piperazine] |
| 5.6 | CC(C)C(C#N)(CCCN1CCC(Nc2nc3ccccc3s2)CC1)c1ccccc1 (centres unmarked) [Example 18] |
| 8.7 | CC(C)n1c(NC2CCN(CCCC(C#N)(c3ccccc3)C(C)C)CC2)nc2ccccc21 (centres unmarked) [Example 22] |
| 4.9 | CC(C)C(C#N)(CCCN1CCN(CCOc2ccc(F)cc2)CC1)c1ccc2ccccc2c1 (centres unmarked) [Example 25, 1-[4-cyano-5-methyl-4-(2-naphthyl)hexyl]-4-[2-(4-fluorophenoxy)ethyl]piperazine] |
| 5.2 | CC(C)C(C#N)(CCCN1CCN(CCOc2ccc(F)cc2)CC1)c1cccc2ccccc12 (centres unmarked) [Example 26, 1-[4-cyano-5-methyl-4-(1-naphthyl)hexyl]-4-[2-(4-fluorophenoxy)ethyl]piperazine] |
| 5.8 | CC(C)C(C#N)(CCCN1CCN(Cc2ccc(-c3ccccc3)nc2)CC1)c1ccccc1 (centres unmarked) [Example 38, 1-[(4-cyano-5-methyl-4-phenyl)hexyl]-4-[(6-phenylpyridine-3-yl)methyl]piperazine] |
| 6.2 | CC(C)C(C#N)(CCCN1CCN(Cc2cc(-c3ccccc3)on2)CC1)c1ccccc1 (centres unmarked) [Example 39, 1-[(4-cyano-5-methyl-4-phenyl)hexyl]-4-[(5-phenylisoxazo-3-yl)methyl]piperazine] |
| 3.5 | CC(C)C(C#N)(CCCN1CCN(Cc2csc(-c3ccccc3)n2)CC1)c1ccccc1 (centres unmarked) [Example 40, 1-[(4-cyano-5-methyl-4-phenyl)hexyl]-4-[(2-phenylthiazo-4-yl)methyl]piperazine] |
| 7.4 | CC(C)C(C#N)(CCCN1CCN(Cc2noc(-c3cccc(F)c3)n2)CC1)c1ccccc1 (centres unmarked) [Example 45] |
| 4.8 | CC(C)C(C#N)(CCCN1CCN(CCCC(C#N)c2ccc(F)cc2)CC1)c1ccccc1 (centres unmarked) [Example 50] |
| 5.2 | CC(C)C(C#N)(CCCN1CCN(CCC/C(=N\O)c2ccc(F)cc2)CC1)c1ccccc1 (centres unmarked) [Example 51, 1-[(4-Cyano-5-methyl-4-phenyl)hexyl]-4-[4-hydroxime-4-(4′-fluorophenyl)butyl]piperazine] |
| 5.1 | CC(C)C(CCN1CCN(CCCC(C#N)(c2ccccc2)C(C)C)CC1)c1ccccc1 (centres unmarked) [Example 52, 1-[(4-Cyano-5-methyl-4-phenyl)hexyl]-4-(4-methyl-3-phenylpentane)piperazine] |
| 2.8 | CC(C)C(CCCN1CCN(CCCC(C#N)(c2ccccc2)C(C)C)CC1)c1ccccc1 (centres unmarked) [Example 53, 1-[(4-Cyano-5-methyl-4-phenyl)hexyl]-4-(4-methyl-3-phenyl-hexane)piperazine] |
| 3.5 | C=CCOCC(CN1CCN(CCCC(C#N)(c2ccccc2)C(C)C)CC1)Oc1ccc(F)cc1 (centres unmarked) [Example 55, 1-[(4-Cyano-5-methyl-4-phenyl)hexyl]-4-[3-allyloxy-2-(4-fluorophenoxy)propyl]piperazine] |
| 3.7 | CCCOCC(CN1CCN(CCCC(C#N)(c2ccccc2)C(C)C)CC1)Oc1ccc(F)cc1 (centres unmarked) [Example 56, 1-[(4-Cyano-5-methyl-4-phenyl)hexyl]-4-[3-(n-propanoxy)-2-(4-fluorophenoxy)propyl]piperazine] |
| 5.6 | CC(C)C(C#N)(CCCN1CCN(CCN2CCCc3ccccc32)CC1)c1ccccc1 (centres unmarked) [Example 58] |
| 8.2 | CC(C)C/N=C(\Nc1ccc(F)cc1)N1CCN(CCCC(C#N)(c2ccccc2)C(C)C)CC1 (centres unmarked) [Example 59, 4-[(4-Cyano-5-methyl-4-phenyl)hexyl]-N-(4-fluorophenyl)-N^2-(2-methylpropyl)-1(2H)-pyrazinecarboxyimidamide] |
| 7.4 | CC(C)C/N=C(\NCc1ccc(F)cc1)N1CCN(CCCC(C#N)(c2ccccc2)C(C)C)CC1 (centres unmarked) [Example 60, 4-[(4-cyano-5-methyl-4-phenyl)hexyl]-N-(4-fluorobenzyl)-N′-(2-methylpropyl)-1 (2H)-pyrazinecarboxyimidamide] |
